# Assay results taken from ChEMBL document CHEMBL5606458, “ASAP - ZIKV NS2B-NS3 protease fluorescence single point” (2024).
# Hit rate of the full screen: of about 2,700 compounds, about 160 (5.9%) showed an effect of 50% or more. This is one part of the list.
# Biological target: Nonstructural protein 3 (Zika virus) (UniProt A0A024AXB9)
# [1] = PRVABC59, Concentration 15.0 uM, Number of replicates 1.0
# [2] = PRVABC59, Concentration 50.0 uM, Number of replicates 1.0
# UniProt A0A024AXB9, sequence (A0A024AXB9 as listed by the source): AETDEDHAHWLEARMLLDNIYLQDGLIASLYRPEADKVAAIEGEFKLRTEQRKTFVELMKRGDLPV
structure (smiles),measurement,setting,value
CC(C)COc1ccc(CNC(=O)C2CCN(c3ccc(C=O)cc3)CC2)cc1,inhibition,"PRVABC59, Concentration 10.0 uM, Number of replicates 1.0",-6.54%
O=C(NCCc1ccc(Cl)c(Cl)c1)c1cc(Cl)ccc1NS(=O)(=O)c1ccc(Oc2ccccc2Cl)cc1,inhibition,[1],32.4%
CC(C)Cn1cccc(C(=O)NC2CCN(C)CC2)c1=O,inhibition,"PRVABC59, Concentration 49.5 uM, Number of replicates 2.0, Standard deviation 1.6566870792545731 %",-3.87%
same,inhibition,"PRVABC59, Concentration 99.01 uM, Number of replicates 2.0, Standard deviation 3.145993850206922 %",-6.69%
O=C(c1cc(Cl)ccc1NS(=O)(=O)c1ccc(Oc2ccccc2Cl)cc1)N1CCC(c2ccncc2)CC1,inhibition,[1],10.5%
O=Cc1ccc(N2CCC(C(=O)N3CCN(Cc4c(F)cccc4Cl)CC3)CC2)cc1,inhibition,[2],21.1%
C[C@@H](NCc1ccc(C(N)=O)cc1)c1ccc(OCc2ccccc2)cc1,inhibition,"PRVABC59, Concentration 49.5 uM, Number of replicates 2.0, Standard deviation 1.6931432392061019 %",-1.14%
same,inhibition,"PRVABC59, Concentration 99.01 uM, Number of replicates 2.0, Standard deviation 0.829849214716914 %",-0.792%
same,inhibition,"PRVABC59, Concentration 198.0 uM, Number of replicates 2.0, Standard deviation 0.6542639054605588 %",-1.9%
O=C(NC1CCN(Cc2ccccc2)CC1)c1cc(Cl)ccc1NS(=O)(=O)c1ccc(Oc2ccccc2Cl)cc1,inhibition,[1],8.32%
CCS(=O)(=O)c1ccc(CNC(=O)c2cc(Cl)ccc2NS(=O)(=O)c2ccc(Oc3ccccc3Cl)cc2)cc1,inhibition,[1],33.1%
C[C@@H]1CCN(Cc2ccccc2)C[C@@H]1N(C)C(=O)c1cc(Cl)ccc1NS(=O)(=O)c1ccc(Oc2ccccc2Cl)cc1,inhibition,[1],20.9%
CCOCCN(CCOCC)C(=O)C1CCN(c2ccc(C=O)cc2)CC1,inhibition,[2],26.9%
O=C(c1cc(Cl)ccc1NS(=O)(=O)c1ccc(Oc2ccccc2Cl)cc1)N1CCC(Oc2cnccn2)CC1,inhibition,[1],10.5%
C[C@@H](NC(=O)OCc1ccccc1)C(=O)Nc1cccc(CN)c1,inhibition,"PRVABC59, Concentration 49.5 uM, Number of replicates 2.0, Standard deviation 0.22300909071478295 %",-5.65%
same,inhibition,"PRVABC59, Concentration 99.01 uM, Number of replicates 2.0, Standard deviation 0.06482809074333463 %",-3.85%
same,inhibition,"PRVABC59, Concentration 198.0 uM, Number of replicates 2.0, Standard deviation 0.9413049329503056 %",-1.69%
COCCN(C(=O)C1CCN(c2ccc(C=O)cc2)CC1)C1CCN(C)CC1,inhibition,[2],30.4%
O=C(NC[C@H]1CCCN(C2CCCC2)C1)c1cc(Cl)ccc1NS(=O)(=O)c1ccc(Oc2ccccc2Cl)cc1,inhibition,[1],19.4%
CCn1ccnc(N2CCC[C@H](c3c[nH]c4ccccc34)C2)c1=O,inhibition,"PRVABC59, Concentration 50.0 uM, Number of replicates 2.0, Standard deviation 0.5152475832691962 %",10.2%
same,inhibition,"PRVABC59, Concentration 100.0 uM, Number of replicates 2.0, Standard deviation 1.199680708656035 %",10.1%
CS(=O)(=O)c1ccc(CN2CCC(c3c[nH]c4cccnc34)CC2)cc1,inhibition,"PRVABC59, Concentration 49.5 uM, Number of replicates 2.0, Standard deviation 0.19659195183033668 %",1.63%
same,inhibition,"PRVABC59, Concentration 99.01 uM, Number of replicates 2.0, Standard deviation 0.06397048666983496 %",5.71%
same,inhibition,"PRVABC59, Concentration 198.0 uM, Number of replicates 2.0, Standard deviation 0.5273656451530484 %",11.4%
COc1ccc2nc(C)c(C)nc2c1N,inhibition,"PRVABC59, Concentration 99.9 uM, Number of replicates 2.0, Standard deviation 7.57309376016941 %",-8.22%
CN1CCN(c2ccccc2NC(=O)c2cc(Cl)ccc2NS(=O)(=O)c2ccc(Oc3ccccc3Cl)cc2)CC1,inhibition,[1],13.9%
O=Cc1ccc(N2CCC(C(=O)N3CCC4(CC3)NC(=O)NC4=O)CC2)cc1,inhibition,[2],27.1%
Cc1cc(CO)c2cccc(Cc3cccc(NC(=O)COc4cccc(CN)c4)c3)c2n1,inhibition,"PRVABC59, Concentration 49.95 uM, Number of replicates 2.0, Standard deviation 2.9163768079952073 %",7.92%
same,inhibition,"PRVABC59, Concentration 99.9 uM, Number of replicates 2.0, Standard deviation 0.6820142334571017 %",25.1%
CCCCCC(=O)N[C@@H](Cc1ccc(CN)cc1)C(=O)N1CCCCC1,inhibition,"PRVABC59, Concentration 49.5 uM, Number of replicates 2.0, Standard deviation 4.431780738958108 %",0.292%
same,inhibition,"PRVABC59, Concentration 99.01 uM, Number of replicates 2.0, Standard deviation 4.3633069458185805 %",0.545%
same,inhibition,"PRVABC59, Concentration 198.0 uM, Number of replicates 2.0, Standard deviation 3.524502052628708 %",-0.164%
CCN(CC)S(=O)(=O)c1ccc(NC(=O)c2cc(Cl)ccc2NS(=O)(=O)c2ccc(Oc3ccccc3Cl)cc2)cc1,inhibition,[1],27.6%
O=Cc1ccc(N2CCC(C(=O)Nc3ccc(Br)c(C(F)(F)F)c3)CC2)cc1,inhibition,[2],22.5%
Cc1cc(CO)c2cccc(Cc3cccc(C(=O)NCC(N)=O)c3)c2n1,inhibition,"PRVABC59, Concentration 49.95 uM, Number of replicates 2.0, Standard deviation 1.0591786257609663 %",-5.74%
same,inhibition,"PRVABC59, Concentration 99.9 uM, Number of replicates 2.0, Standard deviation 0.9490662751035868 %",-1.72%
O=Cc1ccc(N2CCC(C(=O)NCCc3cc(F)cc(F)c3)CC2)cc1,inhibition,[2],19.3%
O=Cc1ccc(N2CCC(C(=O)N3CCC(Cc4ccccc4)CC3)CC2)cc1,inhibition,[2],24.7%
CCN(CCOc1ccccc1C)C(=O)c1cc(Cl)ccc1NS(=O)(=O)c1ccc(Oc2ccccc2Cl)cc1,inhibition,[1],17.6%
Cn1cnc2[nH]c(C(=O)N3CC[C@H](c4c[nH]c5ccccc45)C3)cc21,inhibition,"PRVABC59, Concentration 49.5 uM, Number of replicates 2.0, Standard deviation 1.7141597019957866 %",-4.9%
same,inhibition,"PRVABC59, Concentration 99.01 uM, Number of replicates 2.0, Standard deviation 3.0246149725930045 %",-5%
same,inhibition,"PRVABC59, Concentration 198.0 uM, Number of replicates 2.0, Standard deviation 3.2275240626655477 %",-4.2%
COc1ccc(S(=O)(=O)N2CCC(C(=O)Nc3nc4ccccc4s3)CC2)cc1,inhibition,"PRVABC59, Concentration 49.5 uM, Number of replicates 2.0, Standard deviation 3.281212488466362 %",4.02%
same,inhibition,"PRVABC59, Concentration 99.01 uM, Number of replicates 2.0, Standard deviation 0.8753020409515783 %",5.17%
same,inhibition,"PRVABC59, Concentration 198.0 uM, Number of replicates 2.0, Standard deviation 6.6794445217114635 %",7.79%
N#Cc1ccc(NC(=O)c2cc(Cl)ccc2NS(=O)(=O)c2ccc(Oc3ccccc3Cl)cc2)cc1Br,inhibition,[1],27.9%
O=Cc1ccc(N2CCC(C(=O)NC3CCN(CC4CCOCC4)CC3)CC2)cc1,inhibition,[2],26%
O=C(O)c1cnn(C2CCN(Cc3c[nH]nc3-c3ccccc3)CC2)n1,inhibition,"PRVABC59, Concentration 49.5 uM, Number of replicates 2.0, Standard deviation 0.21821479186625958 %",0.377%
same,inhibition,"PRVABC59, Concentration 99.01 uM, Number of replicates 2.0, Standard deviation 0.606152097773615 %",2.99%
same,inhibition,"PRVABC59, Concentration 198.0 uM, Number of replicates 2.0, Standard deviation 0.6728285807052433 %",8.16%
O=Cc1ccc(N2CCC(C(=O)N3CCN(Cc4ccc(Cl)nc4)CC3)CC2)cc1,inhibition,[2],18%
Cc1c(C(=O)NCc2ccc(Cl)cc2OCCO)ccc(O)c1NC(=O)c1ccncc1F,inhibition,"PRVABC59, Concentration 49.5 uM, Number of replicates 2.0, Standard deviation 0.8627565362668407 %",-0.707%
same,inhibition,"PRVABC59, Concentration 99.01 uM, Number of replicates 2.0, Standard deviation 1.0526843021676198 %",1.68%
same,inhibition,"PRVABC59, Concentration 198.0 uM, Number of replicates 2.0, Standard deviation 0.8566950502709888 %",5.54%
Cc1cc(CO)c2cccc(NC(=O)[C@@H](N)CCN)c2n1,inhibition,"PRVABC59, Concentration 49.95 uM, Number of replicates 2.0, Standard deviation 10.156724992387474 %",7.81%
same,inhibition,"PRVABC59, Concentration 99.9 uM, Number of replicates 2.0, Standard deviation 27.740304464442595 %",6.58%
COCCN(Cc1cccc2ccccc12)C(=O)C1CCN(c2ccc(C=O)cc2)CC1,inhibition,[2],16.9%
O=C(N[C@H](c1ccccc1)[C@@H](O)c1ccccc1)c1cc(Cl)ccc1NS(=O)(=O)c1ccc(Oc2ccccc2Cl)cc1,inhibition,[1],45.7%
CNC(=O)[C@H]1CN(S(=O)(=O)c2ccc(Oc3ccccc3Cl)cc2)CCO1,inhibition,"PRVABC59, Concentration 49.5 uM, Number of replicates 2.0, Standard deviation 3.5847288244061386 %",-2.94%
same,inhibition,"PRVABC59, Concentration 99.01 uM, Number of replicates 2.0, Standard deviation 3.726342509357258 %",-2.14%
same,inhibition,"PRVABC59, Concentration 198.0 uM, Number of replicates 2.0, Standard deviation 2.179159896763992 %",-2.94%
O=Cc1ccc(N2CCC(C(=O)Nc3cnc(Cl)c(Br)c3)CC2)cc1,inhibition,[2],23.4%
CC(C)CCN(CCC(C)C)C(=O)c1cc(Cl)ccc1NS(=O)(=O)c1ccc(Oc2ccccc2Cl)cc1,inhibition,[1],18.8%
